The values that follow come from paper PMC4336329 (PLoS ONE, 2015).

About 2,200 (0.71%) of roughly 310,000 compounds showed an effect of 50% or more. The effect is printed as a negative number. Some of the results follow.

In the experiment the target is human ether-à-go-go-related gene (hERG) potassium channel (human, UniProt Q12809). The experiment can be described thus: primary screen, population patch clamp on CHO cells stably expressing hERG.
human ether-à-go-go-related gene (hERG) potassium channel, sequence (Q12809 whole entry, looked up): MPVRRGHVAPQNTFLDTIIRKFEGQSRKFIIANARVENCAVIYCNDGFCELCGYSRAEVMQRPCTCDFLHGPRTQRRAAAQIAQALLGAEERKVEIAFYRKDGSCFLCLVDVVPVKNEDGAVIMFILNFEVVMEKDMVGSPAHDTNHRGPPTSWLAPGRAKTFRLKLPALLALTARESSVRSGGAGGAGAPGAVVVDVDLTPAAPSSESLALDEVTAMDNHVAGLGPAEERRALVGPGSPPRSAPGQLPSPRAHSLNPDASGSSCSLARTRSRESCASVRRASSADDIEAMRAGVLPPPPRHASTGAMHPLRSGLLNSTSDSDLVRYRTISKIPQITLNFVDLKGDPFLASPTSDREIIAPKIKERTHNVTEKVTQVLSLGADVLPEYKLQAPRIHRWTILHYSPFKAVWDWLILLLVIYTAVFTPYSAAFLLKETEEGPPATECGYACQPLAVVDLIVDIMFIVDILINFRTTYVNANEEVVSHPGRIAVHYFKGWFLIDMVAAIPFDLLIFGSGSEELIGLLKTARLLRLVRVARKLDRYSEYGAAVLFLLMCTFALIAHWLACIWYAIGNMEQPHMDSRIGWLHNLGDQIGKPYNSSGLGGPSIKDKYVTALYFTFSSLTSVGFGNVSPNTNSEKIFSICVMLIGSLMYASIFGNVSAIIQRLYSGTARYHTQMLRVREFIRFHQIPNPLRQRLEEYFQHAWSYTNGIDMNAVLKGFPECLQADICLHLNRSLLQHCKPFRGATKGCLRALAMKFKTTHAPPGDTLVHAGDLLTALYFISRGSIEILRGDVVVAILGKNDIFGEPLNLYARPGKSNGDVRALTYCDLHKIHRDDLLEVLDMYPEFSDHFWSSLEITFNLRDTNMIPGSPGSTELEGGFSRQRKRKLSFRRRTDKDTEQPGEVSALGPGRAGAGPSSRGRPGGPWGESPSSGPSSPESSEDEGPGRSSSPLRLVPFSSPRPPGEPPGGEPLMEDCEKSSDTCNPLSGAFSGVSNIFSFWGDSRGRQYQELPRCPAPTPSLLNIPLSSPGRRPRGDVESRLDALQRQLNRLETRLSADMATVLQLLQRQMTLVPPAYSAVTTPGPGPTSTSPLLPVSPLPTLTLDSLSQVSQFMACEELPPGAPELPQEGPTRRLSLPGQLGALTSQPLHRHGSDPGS
On to `Cc1ccc2nc(SC(C)C(=O)N3CCCCC3)[nH]c2c1` (stereo not drawn), for which the “hERG current change (%, negative = inhibition) at 1uM” value stood at 16.8%.
Next, `COc1ccc(OCC(=O)NCCCn2ccnc2)cc1.Cl`: 13.5%; `Cc1ccc(CONC(=O)/N=C/N(C)C)cc1`: -0.65%.
With `Cc1c(C(=O)N2CCCCCC2)c(S(=O)(=O)Nc2cccc(F)c2)c(C)n1C`, the “hERG current change (%, negative = inhibition) at 1uM” value was found to be 12.5%.
As for `O=C(CCCNC(=O)/C(=C/c1ccccc1F)NC(=O)c1ccccc1)OCc1ccccc1`, the figure is 4.25%; as for `COc1ccc(C2CC(c3ccccc3)=NN2C(=O)CSc2nnnn2-c2cccc(C)c2)cc1` (stereo not drawn), 2.06%.
Next, `O=C(COC(=O)Cc1cccc(F)c1)NCCc1ccccc1`: 8.44%.
Next, `COCCOC(=O)c1cc(C(=O)c2cc(F)ccc2O)coc1=N`: 18.5%.
For the compound `CC(C)CC(NC(=O)C(CC(C)C)NC(=O)OC(C)(C)C)C(N)=O` (stereo not drawn), the “hERG current change (%, negative = inhibition) at 1uM” value was 9.86%.
Turning to `COc1ccc(C(=O)n2c(C)c(CCO)c(=O)n2C)cc1`, the “hERG current change (%, negative = inhibition) at 1uM” value is on record as 7.35%.
As for `Cc1c(Cl)cccc1NC(=O)CCCN1C(=O)c2cccnc2C1=O`, the figure is 19.9%; as for `CSc1c(-c2ccccn2)c(N)nn1C(=O)C1CC1`, 10.9%; as for `COc1ccc(C(=O)N=C2SC3CS(=O)(=O)CC3N2c2ccccc2)cc1OC` (stereo not drawn), 9.82%.
On to `COc1ccc(S(=O)(=O)N(C)c2ccc(C(=O)N3CCC(C(N)=O)CC3)cc2)cc1OC`, for which the “hERG current change (%, negative = inhibition) at 1uM” value worked out at 15.9%.
Consider `Cc1cc(C)cc(C(=O)NC(CC(N)=O)c2ccc(NCCN3CCOCC3)c([N+](=O)[O-])c2)c1` (stereo not drawn), for which the “hERG current change (%, negative = inhibition) at 1uM” value is 13.4%.
As for `COc1ccc(CCNS(=O)(=O)c2ccc(-n3cnnn3)c(OC)c2)cc1OC`, the figure is 17%; as for `CC(C)=CCN1CCC(n2nccc2NC(=O)c2ccccc2Cl)CC1`, -43%; as for `CC(C)CC(C(=O)O)N1C(=O)C2C3C=CC(C2C1=O)C1C(=O)N(C(CC(C)C)C(=O)O)C(=O)C31` (stereo not drawn), 16.8%.
Next, `Cc1noc(C)c1CSCC(=O)N(C)CC(=O)Nc1cccc(F)c1`: -5.51%.
Next, `CC1CCN(S(=O)(=O)c2ccc(NC(=O)c3ccccc3F)cc2)CC1`: 9.59%; `Cc1cc(C(=O)NCCCC(=O)O)c(C)o1`: 3.98%.
On to `NS(=O)(=O)c1cccc(NC(=O)CN2CCN(Cc3ccc4c(c3)OCO4)CC2)c1`, for which the “hERG current change (%, negative = inhibition) at 1uM” value is given as -4.96%.
For the compound `CC(=O)NC1=NN(C(C)=O)C(C)(CCS(=O)(=O)c2ccc(Br)cc2)S1` (stereo not drawn), the “hERG current change (%, negative = inhibition) at 1uM” value was 6.6%.
As for `N#Cc1c(SCc2c(Cl)cccc2Cl)nc(N)[nH]c1=S`, the figure is 14.4%; as for `O=C(N[C@@H](Cc1ccccc1)C(=O)OCC(=O)N1CCOCC1)c1cccs1`, -6.21%; as for `CC(OC(=O)c1cc[n+]([O-])cc1)C(=O)Nc1ccc(C(N)=O)cc1` (stereo not drawn), 11.8%.
Next, `CCN(C(=O)C1CCCN(c2nc(-c3ccc(OC)cc3)no2)C1)c1ccccc1F` (stereo not drawn): 5.47%; `Cc1ccc(C(=O)Nc2cccc(C(=O)N3CCOCC3)c2)cc1Cl`: 7.51%; `C/C(Cc1ccccc1)=N\NC(=O)CNC(=O)COc1cccc(C)c1`: 3.02%.
Next, `C=CCn1nnnc1-c1cc(Cl)cc(Cl)c1`: 11.2%; `CCc1nnc(NC(=O)CSc2ccc(-c3ccc(C)cc3)nn2)s1`: 7.8%.
For `Cc1nsc(Nc2ccc([N+](=O)[O-])cc2)c1C#N`, the “hERG current change (%, negative = inhibition) at 1uM” value was determined as 14.5%.
As for `Cc1cccc(NC(=O)CSc2nc3nc(C)cc(C)n3n2)c1`, the “hERG current change (%, negative = inhibition) at 1uM” value was -12.9%.
`CN1CCN(CC2(O)CCN(S(=O)(=O)c3ccc(Cl)cc3)CC2)CC1`: the “hERG current change (%, negative = inhibition) at 1uM” value was -9.27%.
Next, `S=c1[nH]nc(-c2n[nH]c3c2CCC3)n1/N=C/C=C/c1ccco1`: 26.2%; `O=C1C2C(C(=O)N1CCN1CCN(Cc3ccc([N+](=O)[O-])cc3)CC1)[C@H]1C=C[C@@H]2C1` (stereo partly drawn): -5.11%; `Cc1ccc(C(=O)C[n+]2ccc3ccccc3c2)cc1.[Br-]`: -1.86%.
As for `CCC(=O)N=C1SC2CS(=O)(=O)CC2N1c1cccc(OC)c1` (stereo not drawn), the figure is 4.5%; as for `Cc1cc(C)c2nc(NNC(=O)c3ccc(S(=O)(=O)N4CCc5ccccc5C4)cc3)sc2c1`, 6.7%; as for `O=C(CSc1ccc2ccccc2c1)N1CCN(c2ccc(O)cc2)CC1`, 8.88%.
Next, `O=C(Cc1nnc(NC(=O)Nc2ccccc2)s1)Nc1ccccc1`: 14%; `COc1ccc(Nc2nc(-c3ccccc3O)nc3ccccc23)cc1`: 13.8%.
For `CCn1cc(Br)c(C(=O)Nc2ccc(OC)cc2)n1`, the “hERG current change (%, negative = inhibition) at 1uM” value was 13.1%.
As for `O=C(COc1ccc(Cl)cc1Cl)c1ccc[nH]1`, the figure is -1.33%.
Next, `CCn1c(N)c(C(=O)NCc2ccc3c(c2)OCO3)sc1=S`: 15.4%; `COc1ccc(NC(=O)C2COc3ccccc3O2)cc1` (stereo not drawn): 6.61%; `O=C(OCC(=O)N1CCCC1)c1cc(F)c(F)cc1Cl`: 15.3%.
Regarding `Cc1ccc(N2CCN(C(=O)N3CCOCC3)CC2)cc1C`, the “hERG current change (%, negative = inhibition) at 1uM” value is recorded as 10.9%.
As for `CN(C)CC(O)COC(c1ccc(Cl)cc1)c1ccc(Cl)cc1` (stereo not drawn), the figure is -48.9%.
Next, `CC(C)(C)n1ncc2c(=O)n(CC(=O)Nc3ccc4c(c3)OCCO4)cnc21`: 9.32%; `CCN(CC)S(=O)(=O)c1ccc(C)c(NC(=S)N2CCN(c3ccccn3)CC2)c1`: -31.5%; `CCC(Sc1nc2ccccc2c(=O)n1CCN1CCOCC1)C(=O)NCc1cccnc1` (stereo not drawn): 1.23%.
Next, `CCCCN1C(=S)NC[C@@H]1c1ccccc1`: 5.87%; `O=C(O)c1ccc(-c2noc(-c3ccccc3Cl)n2)cc1`: 7.03%; `CN(C)CCn1c(=O)n(-c2cccc(Cl)c2)c(=O)c2c3c(sc21)CCCCC3`: 6.87%.
On to `O=C1Cc2ccccc2C(c2ccc(Br)cc2)N1` (stereo not drawn), for which the “hERG current change (%, negative = inhibition) at 1uM” value is recorded as 6.61%.
Next, `COc1ccc(CCNC(=O)NC(C(F)(F)F)C(F)(F)F)cc1OC`: 5.68%.
